# Data reported in the supplement of paper PMC3334620.
# Whole data set: some 33,000 sequences, median “E-score (-0.5 to 0.5)” near -0.011, cut for the highest 2% near 0.28. This is one part of the list.
# Target: T1, Gcr1 (UniProt P07261)
# T1 sequence: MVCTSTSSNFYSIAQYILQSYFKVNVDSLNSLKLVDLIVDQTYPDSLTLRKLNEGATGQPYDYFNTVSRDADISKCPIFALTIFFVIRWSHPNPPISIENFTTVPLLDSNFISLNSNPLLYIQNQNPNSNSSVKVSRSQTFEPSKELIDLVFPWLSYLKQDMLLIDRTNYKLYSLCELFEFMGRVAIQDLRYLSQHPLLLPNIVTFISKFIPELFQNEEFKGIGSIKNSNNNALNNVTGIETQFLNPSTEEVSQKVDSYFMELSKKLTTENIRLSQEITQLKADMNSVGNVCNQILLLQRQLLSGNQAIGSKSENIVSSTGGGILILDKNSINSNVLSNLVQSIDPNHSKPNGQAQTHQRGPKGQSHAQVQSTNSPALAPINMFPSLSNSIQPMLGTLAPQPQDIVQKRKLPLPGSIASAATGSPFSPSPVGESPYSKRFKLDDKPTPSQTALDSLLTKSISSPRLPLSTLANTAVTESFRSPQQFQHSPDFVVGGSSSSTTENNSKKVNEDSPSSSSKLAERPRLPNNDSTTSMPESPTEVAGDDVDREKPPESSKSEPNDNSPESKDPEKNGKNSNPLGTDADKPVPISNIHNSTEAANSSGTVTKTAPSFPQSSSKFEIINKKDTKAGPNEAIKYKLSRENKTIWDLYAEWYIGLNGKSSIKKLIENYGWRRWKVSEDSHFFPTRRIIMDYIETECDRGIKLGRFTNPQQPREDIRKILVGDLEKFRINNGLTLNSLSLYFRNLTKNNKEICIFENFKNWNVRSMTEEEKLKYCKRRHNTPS
# Assay: PBM E-score (8-mer binding enrichment) (E-score (-0.5 to 0.5)); higher = stronger / more preferred TF binding; most listed sequences are background and not binding sites
# Conditions: protein concentration: 100 nM; construct: GST-full length
# Summary of the method: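 PURExpress in vitro transcription/translation supplied GST-tagged yeast transcription factors, either full-length or DNA-binding domain. Applied at about 100-200 nM to universal all-10-mer Agilent arrays double-stranded by primer extension, the bound protein was detected with fluorescent anti-GST. E-scores, modified Wilcoxon-Mann-Whitney statistics, were given by the Universal PBM Analysis Suite to ungapped eight-base words pooled with their reverse complements after masliner normalisation.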
row,Sequence,PBM E-score
1,AGGGTCGA,-0.161
2,CCTCAAAG,-0.265
3,CACGGTGG,-0.0173
4,ACCGGGGC,0.107
5,GCGAAGTA,-0.109
6,ACAATGAG,0.154
7,CCACGCTC,-0.128
8,ATCGACAC,-0.189
9,ACGGTGAC,-0.122
10,CTTCACAA,-0.15
11,CGAGAAAC,0.065
12,ATCGGGAG,-0.0827
13,ATTCGCTG,0.139
14,AACCGCTT,0.024
15,GACCGCGC,-0.245
16,AAGCGGAC,0.00583
17,CCCCCACA,0.0968
18,CCACGCCC,-0.202
19,ACTTGTCT,-0.0137
20,ATTCTCCA,0.0563
21,AGACGGGA,0.0406
22,ACTAACTC,-0.146
23,ACGTCGAT,0.0202
24,CAATTAGC,-0.0933
25,CCGTCATA,-0.0107

row,Sequence,PBM E-score
1,ACACTTTA,-0.0103
2,CTGATAAG,0.0222
3,TACCATGA,-0.0573
4,AGGGCCCG,0.115
5,GTCTTTCA,-0.125
6,ACCAATCA,0.094
7,ACAGACAT,-0.144
8,ACGTTTGC,-0.227
9,GATAGTAC,-0.209
10,CCTACCCC,-0.119
11,ATCTTTCG,-0.0569
12,AACAGTGG,0.15
13,CAACCTGG,-0.0727
14,CCCCGGAA,0.124
15,ACATAAAA,0.0485
16,AAATCAGA,-0.0181
17,CTGCCGAC,0.0338
18,CAGTGTAC,-0.17
19,TAACAATA,0.0442
20,AATCTACG,0.0544
21,GTGTGAGA,-0.182
22,GGTGCTAA,0.255
23,AATCAATG,0.141
24,CTCACAAA,-0.127
25,CGCGTGGC,-0.199

row,Sequence,PBM E-score
1,AATTCAGG,0.252
2,ACGGCCAC,0.0247
3,ATGGTTGA,-0.00811
4,CACAACTA,0.118
5,ACTGGAAT,0.415
6,CGCAGGGC,0.0948
7,GAGAGAAC,-0.0962
8,GCTCCTGA,0.0814
9,CACAAGCG,-0.181
10,AATGTTAG,0.0266
11,CGGAATAG,0.0552
12,TATCTTCA,-0.116
13,CGGTTGCC,0.0303
14,ACTGCGGC,0.00516
15,CGTTCGCA,-0.183
16,CCGGGTAG,-0.0416
17,CGTAACGA,-0.0805
18,CGCACCCC,0.0174
19,TTAGCCAA,-0.16
20,TAACAGAA,0.264
21,TAAGTGTA,0.0411
22,ATCTCTCA,-0.057
23,GCTGGGAA,0.109
24,ATTATTCA,0.0454
25,TAAGGATA,0.106

row,Sequence,PBM E-score
1,CCTTTATC,-0.00508
2,CTCCCAGC,-0.0348
3,GCATACAC,-0.191
4,AAATATAG,0.0804
5,GAGGCTCA,-0.188
6,AGACTACG,-0.169
7,CGCTTAAA,0.0798
8,CGACCCCG,-0.151
9,CATTTTGA,0.0927
10,AACTGTCG,0.00358
11,AGCGACAC,-0.0398
12,CCTTCTTC,-0.145
13,AATCCTCC,-0.0264
14,ACGGCTGA,-0.163
15,AATCTTCG,0.148
16,CGGTGATC,0.0363
17,TGAACGCA,0.0909
18,AGCCGACA,-0.00925
19,CTATCTCC,-0.0103
20,GGAGATTA,0.0216
21,GAAAACAA,-0.0846
22,TGGGCCAA,-0.0838
23,AAGCGATG,-0.00894
24,ATGGAAGA,-0.0302
25,ATGTATAA,-0.0422

row,Sequence,PBM E-score
1,ATAAGCAT,0.00462
2,CAGGTGGG,-0.045
3,CAAGATAC,0.0544
4,CGTCGCCC,0.0704
5,CCCCAGCC,-0.126
6,GCTCCAGA,0.0749
7,AATCCCAC,0.0067
8,CACAGCTA,-0.0538
9,ACGGACGG,-0.177
10,CGATAGGA,0.0876
11,CATTACGC,0.137
12,ATGTGGGC,-0.0497
13,ATACTAAT,0.188
14,GCATTGGA,0.0264
15,GCCATGCC,-0.16
16,GAAGGGTA,0.155
17,GTGGGTTA,0.0887
18,ATTCTAGC,0.0665
19,CAGATATG,0.125
20,TCAAAGAA,0.0168
21,CATAATAC,0.149
22,AGGCCACC,-0.0169
23,TCTTGGAA,0.00248
24,AGAATAAT,0.207
25,TAAAAGCA,0.2

row,Sequence,PBM E-score
1,AGCATTTC,0.0346
2,CACTTAAA,0.0634
3,CTTCGGAA,0.086
4,GACCCCCC,-0.241
5,ATACTTCG,-0.12
6,AGGCTCAC,-0.175
7,ATGTTTGG,-0.0852
8,CCTCTACA,0.216
9,AAAGTTGA,0.102
10,GGACGAAA,-0.00369
11,GATCTTGA,0.0503
12,CCAACAAC,0.103
13,AAGCGCCG,-0.0799
14,AAGAAGAT,0.338
15,CGGTGAAA,-0.0939
16,AACATGGC,-0.292
17,AATGGGAA,0.132
18,ATACAATG,0.0525
19,GGGGCACC,0.351
20,CTTTTCCC,-0.0809
21,ATTGCATC,0.0623
22,ATGAGTAA,-0.163
23,AGAAAGTG,-0.0718
24,AAAGTAAA,0.0386
25,ATGCTATA,0.0929

row,Sequence,PBM E-score
1,AAGAAATA,0.176
2,CTCCTTTA,0.115
3,GCAATAGA,0.0987
4,AACACGTT,-0.105
5,GTACATAC,-0.0386
6,AGAGCCTA,-0.186
7,AGCGCCGA,0.0415
8,TCTGCAAA,-0.0886
9,ATCACAAC,-0.0352
10,CAACTGAC,-0.172
11,ACGAAAAG,-0.0632
12,GAAAAAGC,0.012
13,GCTCCACA,0.0711
14,CGTCTGAC,-0.0137
15,CTTAACTA,0.0693
16,ATCTTAAG,0.0404
17,CTAGTGAG,0.0315
18,ACTTTCAT,-0.107
19,AATAGGGC,0.00213
20,ATTCTCAG,-0.108
21,ATCAGAAA,-0.164
22,AACGCCCC,-0.133
